PubChem BioAssay AID686978 (National Center for Advancing Translational Sciences (NCATS), 2013)
The campaign covered roughly 420,000 compounds. About 64,000 (15%) were called active. The inconclusive results got no clear call from the source; some entries with a clear call stand among them for comparison. Calls follow the shape of the dose curve; as a rule, active = well fitted inhibition curve with a large enough effect; inconclusive = small, poorly fitted or top-dose-only effect; inactive = flat fitted curve, though single readings scatter. Potencies of inconclusive entries are left out as doubtful fits.

assay: qHTS for Inhibitors of human tyrosyl-DNA phosphodiesterase 1 (TDP1): qHTS in cells in absence of CPT; settings: DT40 Tdp1-/- hTDP1 cells, no CPT, ATP luminescence, 48 h; series mostly up to 46.2 µM; also: nearly all actives have a fitted effect of over 55% in size
Method in brief: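 Camptothecin absent (DMSO only). Human TDP1-complemented DT40 knockout cells, 400 cells/well, 37 °C for minimum 48 hr; ATP measured via CellTiter-Glo, 30 min dark incubation, luminescence.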
Potency is read from the fitted curve at half-maximal effect; tags tell the direction and shape of the fitted curve.

SMILES	Potency
COc1ccccc1CNC(=O)CSc1nc(-c2ccc(OC)c(OC)c2)cc(C(F)(F)F)n1	inconclusive [inhibitor, single point]
O=C(NCC(c1cccs1)S(=O)(=O)c1cccs1)c1ccc(F)c(F)c1 (stereo unspecified)	inconclusive [inhibitor, single point]
COc1ccc(C(=O)NCC(=O)Nc2ccc(-c3ccccc3)cc2)cc1	inconclusive [inhibitor, partial curve]
c1ccc(-c2nnc(C3CC(c4ccncc4)=NO3)o2)cc1 (stereo unspecified)	inactive
CN(Cc1nc(-c2ccccc2)no1)C1CCOCC1	inactive
COCc1nnc(NC(=O)c2cccc(NC(=O)c3ccccc3)c2)s1	active: 20.6 µM
Cc1ccccc1NC(=O)Cc1nnc(SCC(=O)N2CCOCC2)n1C	inactive
CC(OC(=O)c1ccc(O)cc1)C(=O)Nc1nc(-c2ccccc2)cs1 (stereo unspecified)	inconclusive [inhibitor, single point]
CC(C)(C)c1ccc(NNC(=O)C2CCC2)cc1	inconclusive [inhibitor, partial curve]
COc1ccc(C(=O)Nc2nnc(-c3ccccc3)o2)cc1OC	active: 23.1 µM
COc1cccc(C(O)Cc2nc3ccccc3n2C)c1OC (stereo unspecified)	inactive
Cc1noc(C)c1COc1ccccc1C(=O)N1CCN(S(=O)(=O)c2ccccc2C#N)CC1	inactive
CCC1(C)NC(=O)N(CC(=O)c2cc(C)n(C3CC3)c2C)C1=O (stereo unspecified)	inconclusive [inhibitor, partial curve]
COc1cnn(-c2ccc(C)cc2)c(=O)c1SCc1ccccc1	inconclusive [inhibitor, partial curve, poor fit]
O=C(CSc1nc2c([nH]c3ccccc32)c(=O)n1-c1cccc(Cl)c1)N1CCCC1	inactive
CCOC(=O)N1CCN(C(=O)c2cc3c(ccc4ccccc43)oc2=O)CC1	inactive
CC(=O)NC(CC(=O)Nc1cc(Cl)ccc1-n1cncn1)c1ccccc1 (stereo unspecified)	inactive
Cc1ccc(CS/C(Nc2ccccc2C)=C(\C#N)C(=O)NCc2ccco2)c(C)c1	inconclusive [inhibitor, single point]
Cc1csc(=O)n1CCC(=O)OCC(=O)Nc1ccc(C(N)=O)cc1	inactive
Cc1ccc(CNC(=O)c2ccc3c(c2)NC(=O)C(N2CCOCC2)S3)cc1 (stereo unspecified)	inconclusive [inhibitor, partial curve, poor fit]
CCOCCCNCc1ccc(OCc2ccc(F)cc2)c(OC)c1	inconclusive [inhibitor, single point]
